Laboratory results taken from patent US5086042A, “Peptides with sulfate ester groups” (Fisons Corporation, priority 1989, dated 1992).
At least one peptide structure holds a part that was inferred or is arguable (an end, a ring closure or a residue). Non-standard residues stand in square brackets, D forms with d. Residues, ends and D or L forms follow the SMILES beside them. sY = N[C@@H](Cc1ccc(OS(=O)(=O)O)cc1)C(=O)O; NMeY = CN[C@@H](Cc1ccc(O)cc1)C(=O)O

Tested on: Male Sprague-Dawley rats
Type: in vivo
Conditions: rat, intraperitoneal; for % FEEDING INHIBITION 0.5 hr / % FEEDING INHIBITION 3 hr: 30 μg/kg, vs saline controls; for % FEEDING INHIBITION 3 hr / % FEEDING INHIBITION 3 hr (values marked *): 3 hr feeding period; for % FEEDING INHIBITION 3 hr: IA means inactive
Experimental: The peptides of this invention have the ability to inhibit feeding activity in mammals. As a result they have utility in the prevention and treatment of obesity.
Male Sprague-Dawley rats (weighing 300-350 g) are individually caged and maintained on a 12 hr. light, dark cycle and trained for at least 14 days to feed during a three hr period of the dark cycle but not the 21 hours preceding that three hr period. The day of the study, rats are dosed intraperitoneally with saline (controls) or test compound (dissolved in saline; usually at a concentration of 0.3 to 300 micrograms of test compound per kg of rat weight). Food is introduced 10 minutes after administration of saline or test compound. […] The % feeding inhibition for the 1/2 hr and 3 hr feeding periods obtained by administering a dose of 30 μg/kg of test compound is given in Table 2 for CCK-8 and various compounds of the invention. For example, the % feeding inhibition obtained with CCK-8 (first line of Table 2) was 70% for the 1/2 hr feeding period and 25% for the 3-hour period.

[1] = 300 μg/kg, <10% inhibition at 30 μg/kg

SMILES	% FEEDING INHIBITION 0.5 hr (0.5 hr feeding period) [%]	% FEEDING INHIBITION 3 hr [%]	% FEEDING INHIBITION 3 hr (values marked *) [1] [%]	% FEEDING INHIBITION 0.5 hr (values marked *) (300 μg/kg, 0.5 hr feeding period, <10% inhibition at 30 μg/kg) [%]
CCOC(=O)N[C@@H](Cc1ccc(OS(=O)(=O)O)cc1)C(=O)N[C@@H](CCSC)C(=O)NCC(=O)N[C@@H](Cc1c[nH]c2ccccc12)C(=O)N[C@@H](CCSC)C(=O)N[C@@H](CC(=O)O)C(=O)N[C@@H](Cc1ccccc1)C(N)=O [EtOCO-Tyr(SO3 H)-Met-Gly-Trp-Met-Asp-Phe-NH2] (HELM PEPTIDE1{[CCOC(=O)[*:2]].[O=C([C@H](Cc1ccc(OS(=O)(=O)O)cc1)N[*:1])[*:2]].M.G.W.M.D.F.[am]}$$$$V2.0)	89	63		
CC[C@H](C)[C@H](NC(=O)[C@H](Cc1ccc(OS(=O)(=O)O)cc1)NC=O)C(=O)NCC(=O)N[C@@H](Cc1c[nH]c2ccccc12)C(=O)N[C@H](C(=O)N[C@@H](CC(=O)O)C(=O)N(C)[C@@H](Cc1ccccc1)C(N)=O)[C@@H](C)CC [For-Tyr(SO3 H)-Ile-Gly-Trp-Ile-Asp-MePhe-NH2] (HELM PEPTIDE1{[O=C[*:2]].[O=C([C@H](Cc1ccc(OS(=O)(=O)O)cc1)N[*:1])[*:2]].I.G.W.I.D.[meF].[am]}$$$$V2.0)	100	85		
CSCC[C@H](NC(=O)[C@H](Cc1ccc(OS(=O)(=O)O)cc1)NC=O)C(=O)NCC(=O)N[C@@H](Cc1c[nH]c2ccccc12)C(=O)N[C@@H](CCSC)C(=O)N[C@@H](CC(=O)O)C(=O)N(C)[C@@H](Cc1ccccc1)C(N)=O [For-Tyr(SO3 H)-Met-Gly-Trp-Met-Asp-MePhe-NH2] (HELM PEPTIDE1{[O=C[*:2]].[O=C([C@H](Cc1ccc(OS(=O)(=O)O)cc1)N[*:1])[*:2]].M.G.W.M.D.[meF].[am]}$$$$V2.0)	100	96		
CC[C@H](C)[C@H](NC(=O)[C@H](Cc1c[nH]c2ccccc12)NC(=O)CNC(=O)[C@@H](NC(=O)[C@@H](Cc1ccc(OS(=O)(=O)O)cc1)NC(=O)[C@@H](N)CC(=O)O)[C@@H](C)CC)C(=O)N[C@@H](CC(=O)O)C(=O)N(C)[C@@H](Cc1ccccc1)C(N)=O [H-Asp-DTyr(SO3 H)-Ile-Gly-Trp-Ile-Asp-MePhe-NH2] (HELM PEPTIDE1{D.[O=C([C@@H](Cc1ccc(OS(=O)(=O)O)cc1)N[*:1])[*:2]].I.G.W.I.D.[meF].[am]}$$$$V2.0)	40			
CSCC[C@H](NC(=O)[C@H](Cc1c[nH]c2ccccc12)NC(=O)CNC(=O)[C@H](CCSC)NC(=O)[C@@H](Cc1ccc(OS(=O)(=O)O)cc1)NC(=O)[C@@H](N)CC(=O)O)C(=O)N[C@@H](CC(=O)O)C(=O)N[C@@H](Cc1ccccc1)C(N)=O [H-Asp-DTyr(SO3 H)-Met-Gly-Trp-Met-Asp-Phe-NH2]	74	24		
CSCC[C@H](NC(=O)[C@H](Cc1c[nH]c2ccccc12)NC(=O)CNC(=O)[C@H](CCSC)NC(=O)[C@@H](Cc1ccc(OS(=O)(=O)O)cc1)NC(=O)[C@@H](N)CC(=O)O)C(=O)N[C@@H](CC(=O)O)C(=O)N(C)[C@@H](Cc1ccccc1)C(N)=O [H-Asp-DTyr(SOH3)-Met-Gly-Trp-Met-Asp-MePhe-NH2]	85	35		
CCCC[C@@H](NC(=O)[C@H](Cc1ccc(OS(=O)(=O)O)cc1)NC(=O)[C@@H](N)CC(=O)O)C(=O)NCC(=O)N[C@@H](Cc1c[nH]c2ccccc12)C(=O)N[C@@H](CCSC)C(=O)N[C@@H](CC(=O)O)C(=O)N[C@@H](Cc1ccccc1)C(N)=O [H-Asp-Tyr(SO3 H)-DAhx-Gly-Trp-Met-Asp-Phe-NH2] (HELM PEPTIDE1{D.[O=C([C@H](Cc1ccc(OS(=O)(=O)O)cc1)N[*:1])[*:2]].[CCCC[C@@H](N[*:1])C(=O)[*:2]].G.W.M.D.F.[am]}$$$$V2.0)	14		17	
CSCC[C@H](NC(=O)[C@H](Cc1ccc(OS(=O)(=O)O)cc1)NC(=O)[C@@H](N)CC(=O)O)C(=O)NCC(=O)N(C)[C@@H](Cc1c[nH]c2ccccc12)C(=O)N[C@@H](CCSC)C(=O)N[C@@H](CC(=O)O)C(=O)N[C@@H](Cc1ccccc1)C(N)=O [H-Asp-Tyr(SO3 H)-Met-Gly-MeTrp-Met-Asp-Phe-NH2]	31	11		
CSCC[C@H](NC(=O)[C@H](Cc1ccc(OS(=O)(=O)O)cc1)NC(=O)[C@@H](N)CC(=O)O)C(=O)NCC(=O)N[C@@H](Cc1c[nH]c2ccccc12)C(=O)N[C@@H](CCSC)C(=O)N[C@@H](CC(=O)O)C(=O)N(C)[C@@H](Cc1ccccc1)C(N)=O [H-Asp-Tyr(SO3 H)-Met-Gly-Trp-Met-Asp-MePhe-NH2]	70	24		
COc1ccc(C[C@@H](C(N)=O)N(C)C(=O)[C@H](CC(=O)O)NC(=O)[C@H](CCSC)NC(=O)[C@H](Cc2c[nH]c3ccccc23)NC(=O)CNC(=O)[C@H](CCSC)NC(=O)[C@H](Cc2ccc(OS(=O)(=O)O)cc2)NC(=O)[C@@H](N)CC(=O)O)cc1 [H-Asp-Tyr(SO3 H)-Met-Gly-Trp-Met-Asp-MeTyr(Me)-NH2] (H-D[sY]MGWMD[NMeY](Me)-NH2)	65	17		
CSCC[C@H](NC(=O)[C@H](Cc1ccc(OS(=O)(=O)O)cc1)NC(=O)[C@@H](N)CC(=O)O)C(=O)NCC(=O)N[C@@H](Cc1c[nH]c2ccccc12)C(=O)N[C@@H](CC[S+](C)[O-])C(=O)N[C@@H](CC(=O)O)C(=O)N[C@@H](Cc1ccccc1)C(N)=O (stereo partly drawn) [H-Asp-Tyr(SO3 H)-Met-Gly-Trp-MetO-Asp-Phe-NH2]	45		21	
CSCC[C@H](NC(=O)[C@H](Cc1c[nH]c2ccccc12)NC(=O)[C@@H]1CCCN1C(=O)[C@H](CCSC)NC(=O)[C@H](Cc1ccc(OS(=O)(=O)O)cc1)NC(=O)[C@@H](N)CC(=O)O)C(=O)N[C@@H](CC(=O)O)C(=O)N(C)[C@@H](Cc1ccccc1)C(N)=O [H-Asp-Tyr(SO3 H)-Met-Pro-Trp-Met-Asp-MePhe-NH2] (HELM PEPTIDE1{D.[O=C([C@H](Cc1ccc(OS(=O)(=O)O)cc1)N[*:1])[*:2]].M.P.W.M.D.[meF].[am]}$$$$V2.0)				24
CSCC[C@H](NC(=O)[C@H](Cc1c[nH]c2ccccc12)NC(=O)CNC(=O)[C@H](CC[S+](C)[O-])NC(=O)[C@H](Cc1ccc(OS(=O)(=O)O)cc1)NC(=O)[C@@H](N)CC(=O)O)C(=O)N[C@@H](CC(=O)O)C(=O)N[C@@H](Cc1ccccc1)C(N)=O (stereo partly drawn) [H-Asp-Tyr(SO3 H)-MetO-Gly-Trp-Met-Asp-Phe-NH2]	89	25		
C[S+]([O-])CC[C@H](NC(=O)[C@H](Cc1ccc(OS(=O)(=O)O)cc1)NC(=O)[C@@H](N)CC(=O)O)C(=O)NCC(=O)N[C@@H](Cc1c[nH]c2ccccc12)C(=O)N[C@@H](CC[S+](C)[O-])C(=O)N[C@@H](CC(=O)O)C(=O)N[C@@H](Cc1ccccc1)C(N)=O (stereo partly drawn) [H-Asp-Tyr(SO3 H)-MetO-Gly-Trp-MetO-Asp-Phe-NH2]	15			
CSCC[C@H](NC(=O)[C@H](Cc1c[nH]c2ccccc12)NC(=O)CNC(=O)[C@H](CCSC)NC(=O)[C@@H](Cc1ccc(OS(=O)(=O)O)cc1)NC(=O)[C@H](N)CC(=O)O)C(=O)N[C@@H](CC(=O)O)C(=O)N[C@@H](Cc1ccccc1)C(N)=O [H-DAsp-DTyr(SO3 H)-Met-Gly-Trp-Met-Asp-Phe-NH2]	53	15		
